In the antibiotic and cytotoxicity screens of Wong et al. (2023) one finds cytotoxicity call and growth inhibition call data, which are given here for 33 molecules.

The subject of one test is HSkMC. The test is described as follows: cytotoxicity call (relative viability < 0.9). To be noted: 10 µM.
For the next test, the system named is HepG2. The test is described as follows: cytotoxicity call (relative viability < 0.9). To be noted: 10 µM.
In a further test the test system is S. aureus RN4220. The experiment in a line: growth inhibition call (relative growth <= 0.2). To be noted: 50 µM.

The list shows a part of the results.

`Cc1noc(C)c1NC(=O)Nc1ccc2c(c1)C(=O)N([C@H](C)CO)C[C@H](C)[C@H](CN(C)CC1CC1)OCCCC[C@H](C)O2`: the cytotoxicity call in the test on HSkMC and in the test on HepG2 was “inactive” in each case. Moreover, in the test with S. aureus RN4220, the growth inhibition call was “inactive”.
Take `O=C(CN1CCOCC1)N[C@@H]1CC[C@@H](CCNC(=O)Nc2cc(F)ccc2F)O[C@@H]1CO`: the cytotoxicity call in the test on HSkMC and in the test on HepG2 was “inactive” in each case. Moreover, the growth inhibition call in the test on S. aureus RN4220 was “inactive”.
`C[C@H](CO)N1C[C@H](C)[C@H](CN(C)Cc2ccc3c(c2)OCO3)Oc2c(NC(=O)c3ccc(-c4nccs4)cc3)cccc2C1=O`: the cytotoxicity call in the test with HSkMC and in the test on HepG2 was “inactive” each time. Moreover, the growth inhibition call in the test on S. aureus RN4220 was “inactive”.
`CNC[C@H]1OCCCC[C@H](C)Oc2ccc(NS(=O)(=O)c3cn(C)cn3)cc2C(=O)N([C@@H](C)CO)C[C@@H]1C`: the cytotoxicity call in the test on HSkMC and in the test with HepG2 was “inactive” in each case. The growth inhibition call in the test on S. aureus RN4220 is “inactive”.
Consider `Cc1cc(=O)n(CNC(=O)c2ccco2)cn1`, for which the cytotoxicity call with HSkMC and with HepG2 was “inactive” each time. Moreover, the growth inhibition call with S. aureus RN4220 is “inactive”.
On to `Cc1noc(C)c1NC(=O)Nc1ccc2c(c1)CC(=O)N([C@@H](C)CO)C[C@@H](C)[C@@H](CN(C)Cc1ccc(C(F)(F)F)cc1)O2`, for which the cytotoxicity call in the test with HSkMC and with HepG2 was “inactive” in each case. Further, in the test on S. aureus RN4220, the growth inhibition call is “inactive”.
For `C[C@@H]1CN([C@@H](C)CO)C(=O)Cc2cc(NS(=O)(=O)c3cccs3)ccc2O[C@@H]1CN(C)C(=O)Nc1cccc2ccccc12`, the cytotoxicity call in the test on HSkMC and in the test with HepG2 was “inactive” throughout. Further, the growth inhibition call with S. aureus RN4220 is “inactive”.
For `O=C(C[C@H]1C[C@H]2c3cc(NC(=O)Cc4ccncc4)ccc3O[C@H]2[C@H](CO)O1)NCCc1ccccc1`, the cytotoxicity call in the test with HSkMC and in the test on HepG2 was “inactive” throughout. In addition, the growth inhibition call in the test with S. aureus RN4220 is “inactive”.
For the molecule `C[C@H]1CN([C@@H](C)CO)C(=O)Cc2cc(NC(=O)Nc3ccc(C(F)(F)F)cc3)ccc2O[C@@H]1CN(C)Cc1ccc(Cl)c(Cl)c1`, the cytotoxicity call in the test on HSkMC and in the test on HepG2 was “inactive” throughout. In addition, in the test on S. aureus RN4220, the growth inhibition call was “inactive”.
Take `Cc1noc(C)c1NC(=O)N(C)C[C@@H]1Oc2ccc(NC(=O)CCN3CCOCC3)cc2C(=O)N([C@H](C)CO)C[C@H]1C`: the cytotoxicity call with HSkMC and in the test on HepG2 was “inactive” each time. In addition, the growth inhibition call with S. aureus RN4220 was “inactive”.
As to `Cc1ccc2nc3c(cc(C(=O)NCCN4CCOCC4)c(=N)n3C[C@H]3CCCO3)c(=O)n2c1`, the cytotoxicity call in the test with HSkMC and with HepG2 was “inactive” in each case. In addition, the growth inhibition call in the test on S. aureus RN4220 is “inactive”.
`C[C@@H]1CN([C@@H](C)CO)C(=O)c2cc(C#CCc3ccccc3)cnc2O[C@@H]1CN(C)C(=O)C1CCOCC1`: the cytotoxicity call in the test with HSkMC and with HepG2 was “inactive” throughout. Besides, the growth inhibition call with S. aureus RN4220 is “inactive”.
Regarding `[N-]=[N+]=Nc1ccccc1C[C@]1(C(=O)N2CCCCC2)N=C(c2ccc(OCCCO)cc2)O[C@H]1c1ccccc1`, the cytotoxicity call in the test with HSkMC was “inactive”. Further, in the test with HepG2, the cytotoxicity call is “active”. In the test on S. aureus RN4220, the growth inhibition call is “inactive”.
For `NS(=O)(=O)c1cc(-c2nn[nH]n2)c(NCc2cccs2)cc1Cl`, the cytotoxicity call in the test on HSkMC and with HepG2 was “inactive” throughout. Moreover, the growth inhibition call in the test on S. aureus RN4220 was “inactive”.
As for `Cc1noc(C)c1NC(=O)N(C)C[C@H]1OCCCC[C@@H](C)Oc2ccc(NC(=O)c3ccccc3)cc2C(=O)N([C@@H](C)CO)C[C@@H]1C`, the cytotoxicity call in the test with HSkMC and in the test with HepG2 was “inactive” throughout. Also, in the test on S. aureus RN4220, the growth inhibition call is “inactive”.
Take `COc1ccccc1N1CCN(CC(O)COc2cccc3ccccc23)CC1` (centres undefined): in the test with HSkMC, the cytotoxicity call was “inactive”. Besides, in the test on HepG2, the cytotoxicity call was “active”. The growth inhibition call in the test with S. aureus RN4220 is “inactive”.
For `Cc1ccc(NC(=N)N=C(N)N)c(C)c1`, the cytotoxicity call with HSkMC and in the test with HepG2 was “inactive” each time. The growth inhibition call in the test on S. aureus RN4220 was “inactive”.
Turning to `C[C@H]1CN([C@@H](C)CO)C(=O)c2cc(NC(=O)Cn3cnnn3)ccc2O[C@H]1CN(C)C(=O)Nc1ccc(C(F)(F)F)cc1`, the cytotoxicity call with HSkMC and with HepG2 was “inactive” in each case. Moreover, the growth inhibition call in the test with S. aureus RN4220 was “inactive”.
Turning to `CCC(c1ccc(O)cc1)C(CC)c1ccc(O)cc1` (centres undefined), the cytotoxicity call with HSkMC and with HepG2 was “inactive” each time. Further, in the test on S. aureus RN4220, the growth inhibition call was “inactive”.
Turning to `CN([NH2+][O-])C(=O)N[C@@H]1[C@@H](O)[C@H](O)[C@H](CO)O[C@@H]1O`, the cytotoxicity call with HSkMC and in the test with HepG2 was “inactive” throughout. Besides, the growth inhibition call in the test with S. aureus RN4220 was “inactive”.
On to `C[C@H]1CN([C@@H](C)CO)C(=O)c2cccc(NS(=O)(=O)c3cn(C)cn3)c2O[C@H]1CN(C)CC1CCCCC1`, for which the cytotoxicity call in the test with HSkMC and in the test with HepG2 was “inactive” throughout. In addition, the growth inhibition call in the test on S. aureus RN4220 was “inactive”.
For `Cc1noc(C)c1NC(=O)Nc1ccc2c(c1)C(=O)N([C@@H](C)CO)C[C@H](C)[C@H](CN(C)S(=O)(=O)c1ccc(F)cc1)OCCCC[C@@H](C)O2`, the cytotoxicity call in the test on HSkMC and in the test with HepG2 was “inactive” in each case. Besides, the growth inhibition call with S. aureus RN4220 is “inactive”.
Turning to `C[C@@H]1CN([C@@H](C)CO)C(=O)c2cc(C#CCc3ccccc3)cnc2O[C@H]1CN(C)C(=O)C1CCOCC1`, the cytotoxicity call in the test on HSkMC and in the test on HepG2 was “inactive” in each case. In addition, in the test with S. aureus RN4220, the growth inhibition call is “inactive”.
As to `COc1ccccc1C#Cc1cnc2c(c1)C(=O)N([C@H](C)CO)C[C@@H](C)[C@H](CN(C)C(=O)CC1CC1)O2`, the cytotoxicity call with HSkMC and with HepG2 was “inactive” each time. Besides, the growth inhibition call in the test on S. aureus RN4220 is “inactive”.
With `C[C@@H]1CN([C@@H](C)CO)C(=O)c2cc(NC(=O)c3ccncc3)ccc2O[C@@H]1CN(C)S(=O)(=O)c1ccccc1`, the cytotoxicity call with HSkMC and with HepG2 was “inactive” throughout. Moreover, the growth inhibition call in the test with S. aureus RN4220 was “inactive”.
For the molecule `C[C@H](CO)N1C[C@H](C)[C@@H](CN(C)C(=O)C2CCOCC2)Oc2ncc(C#CCc3ccccc3)cc2C1=O`, the cytotoxicity call in the test with HSkMC and in the test on HepG2 was “inactive” in each case. Moreover, the growth inhibition call in the test with S. aureus RN4220 is “inactive”.
Consider `COc1ccc(NC(=O)[C@@H]2[C@H](c3ccc(C)cc3)CC(=O)N2C(=O)OCc2ccccc2)c2ncccc12`, for which the cytotoxicity call with HSkMC and in the test with HepG2 was “inactive” throughout. For the same molecule, in the test with S. aureus RN4220, the growth inhibition call is “inactive”.
On to `C[C@@H]1CCCCO[C@H](CN(C)C(=O)Nc2cccc3ccccc23)[C@@H](C)CN([C@H](C)CO)C(=O)c2cc(NS(C)(=O)=O)ccc2O1`, for which the cytotoxicity call with HSkMC and with HepG2 was “inactive” in each case. For the same molecule, the growth inhibition call in the test with S. aureus RN4220 was “inactive”.
For the molecule `O=C(CCCCC(=O)N/N=C/c1cc[n+]([O-])cc1)NO`, the cytotoxicity call in the test on HSkMC and in the test with HepG2 was “inactive” each time. Moreover, the growth inhibition call in the test on S. aureus RN4220 is “inactive”.
In the case of `C[C@@H]1CN([C@@H](C)CO)C(=O)c2cc(NC(=O)Nc3ccc(C(F)(F)F)cc3)ccc2O[C@@H](C)CCCCO[C@@H]1CN(C)Cc1ccncc1`, the cytotoxicity call with HSkMC was “inactive”. Further, the cytotoxicity call in the test on HepG2 was “active”. Also, the growth inhibition call in the test with S. aureus RN4220 was “inactive”.
Consider `C[C@@H]1CN([C@@H](C)CO)C(=O)c2cc(NS(C)(=O)=O)ccc2O[C@@H](C)CCCCO[C@@H]1CN(C)S(=O)(=O)c1ccc(F)cc1`, for which the cytotoxicity call in the test on HSkMC and in the test with HepG2 was “inactive” throughout. Also, in the test on S. aureus RN4220, the growth inhibition call was “inactive”.
For the molecule `Cc1noc(C)c1NC(=O)N(C)C[C@@H]1OCCCC[C@H](C)Oc2ccc(NS(=O)(=O)c3ccccc3)cc2C(=O)N([C@@H](C)CO)C[C@@H]1C`, the cytotoxicity call in the test on HSkMC (human skeletal muscle cells) and in the test on HepG2 was “inactive” throughout. Also, the growth inhibition call with S. aureus RN4220 is “inactive”.
For `CCC(=O)N1C[C@]2(C1)CN([C@H](CO)c1c2c2ccc(cc2n1C)OC)C(=O)CN1CCOCC1`, the cytotoxicity call with HSkMC and in the test with HepG2 was “inactive” throughout. The growth inhibition call in the test on S. aureus RN4220 was “inactive”.
